In ChEMBL document CHEMBL4888484, “Replenishing the malaria drug discovery pipeline: Screening and hit evaluation of the MMV Hit Generation Library 1 (HGL1) against asexual blood stage Plasmodium falciparum ,using a nano luciferase reporter read-out” (2022):
Screen size: about 150,000 compounds; about 540 (0.36%) showed an effect of 50% or more. The list shows a part of the results.

Test system: Plasmodium falciparum
Assay: Primary screen in NF54 nanoGlo assay, in single point, at 2uM, 72h; a lower Z score goes with more inhibition
Format: functional, Erythrocyte
Conditions: timepoint 72 hour

Row | SMILES | % Inhibition | Z score
1 | CCN1C(=O)N(CC)C(OC(C)=O)C1OC(C)=O (stereo not drawn) | -7% | 0.82
2 | CCCc1cc(-c2ccc(N(C)C)nc2)nc(C)n1 | -26% | 3.27
3 | Cn1cc(C(=O)N[C@H]2CCCc3ccccc32)cn1 | -4% | 0.47
4 | N#Cc1cccc(CN2C[C@@H]3CC[C@H]2CN(Cc2ccccn2)C3)c1 | -12% | 1.27
5 | Cc1n[nH]c(=O)nc1NCc1ccc(F)cc1 | 4% | -0.48
6 | CN(C)S(=O)(=O)N1CCOC[C@H]1c1nc(-c2ccccc2)no1 | 10% | -1.28
7 | COc1ccc([C@H]2OCC[C@@H]2NC(=O)Nc2nc(C)no2)cn1 | -9% | 1.2
8 | CCCCN1CCN(C(=O)CN2CCN(Cc3ccc(F)cc3Cl)C2=O)CC1 | 37% | -4.94
9 | c1ccc(Cc2nc(Cn3ccnc3-c3ccnc4ccccc34)no2)cc1 | -7% | 0.97
10 | COc1cccc(N2CCN(C(=O)[C@H]3CCCN(c4cnn(C)c(=O)c4)C3)CC2)c1 | 7% | -1.25
11 | Cc1sc(NC(=O)N[C@@H]2CCCNC2)nc1C(C)C | -3% | 0.6
12 | CCn1cc(CNCc2ccc(OC34CCCN(CC3)C4)cc2)cn1 (stereo not drawn) | -14% | 2.6
13 | C[C@H](NC(=O)c1ccncc1)c1cc2ccccc2o1 | -8% | 1.31
14 | Cc1ccc(C(=O)N2CCC(N3C(=O)N(Cc4cccnc4)C[C@]34CCOC4)CC2)s1 | -9% | 1.45
15 | CN(CCC(=O)Nc1ccccc1Cl)CCC1(O)CCCC1 | -5% | 0.86
16 | CC[C@](C)(NC(=O)CN1C(=O)c2ccccc2C1=O)C(=O)Nc1c(C)cccc1C | 2% | -0.35
17 | O=C(OCc1nc2ccccc2[nH]1)c1cccc(N2CCCC2=O)c1 | 4% | -0.58
18 | O=C(NCc1ccc(F)cc1)c1ccc2c(=O)n(-c3ccccc3)c(N3CCCC3)nc2c1 | 6% | -1.11
19 | COc1cnc(N2CCOC(c3ccccc3)C2)nc1N1CCOC(c2ccccc2)C1 (stereo not drawn) | -1% | 0.14
20 | CC1CC1CNC(=O)NCCc1nnc2ccccn12 (stereo not drawn) | -6% | 1
21 | CC(=O)N1CC(C(=O)Nc2ccc(Cl)cc2)C1 | 2% | -0.27
22 | O=C(C1CCCC1)N1CCN2C(=O)NC[C@H]2C1 | 2% | -0.25
23 | CCN(C[C@H]1CCCO1)C(=O)c1cc(COc2ccc3sc(C)nc3c2)on1 | -7% | 1.18
24 | COc1c(Cl)cc(Cl)cc1[C@H](c1nnnn1C(c1ccccc1)c1ccccc1)N1CCCCC1 | -33% | 3.9
